Test [1] concerns the target HiBiT-FZD5-mCherry (NCI-H1703 cells) (mouse) (UniProt Q9EQD0). Put plainly: confocal microscopy of fluorescent ligand on live cells; NCI-H1703 cells stably expressing HiBiT-FZD(4,5,8,10)-mCherry incubated with eGFP-Wnt conditioned medium (1 h in the methods, 3 h in the legend of Figure 1A), then imaged. (In general: The HiBiT peptide binds its large partner to form an active luciferase.)

By UniProt entry, the sequences of proteins in these tests, tags left out. Residues count along the entry.
UniProt Q9EQD0, residues 27-585: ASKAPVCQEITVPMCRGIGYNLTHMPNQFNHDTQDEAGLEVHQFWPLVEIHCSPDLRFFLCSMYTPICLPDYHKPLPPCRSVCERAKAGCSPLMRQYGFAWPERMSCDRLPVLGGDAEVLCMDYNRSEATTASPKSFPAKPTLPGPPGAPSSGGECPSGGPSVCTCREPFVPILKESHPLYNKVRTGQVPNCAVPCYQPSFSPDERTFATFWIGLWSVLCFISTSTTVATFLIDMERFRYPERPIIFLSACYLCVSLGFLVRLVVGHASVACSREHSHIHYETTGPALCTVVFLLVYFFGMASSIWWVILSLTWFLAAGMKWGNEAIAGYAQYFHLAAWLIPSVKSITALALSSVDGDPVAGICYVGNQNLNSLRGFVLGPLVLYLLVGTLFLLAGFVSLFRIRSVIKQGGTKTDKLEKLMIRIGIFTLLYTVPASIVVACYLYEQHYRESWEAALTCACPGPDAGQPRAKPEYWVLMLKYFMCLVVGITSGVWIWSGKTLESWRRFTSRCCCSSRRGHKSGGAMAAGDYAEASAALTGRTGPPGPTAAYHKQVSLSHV
UniProt Q61091, residues 28-685: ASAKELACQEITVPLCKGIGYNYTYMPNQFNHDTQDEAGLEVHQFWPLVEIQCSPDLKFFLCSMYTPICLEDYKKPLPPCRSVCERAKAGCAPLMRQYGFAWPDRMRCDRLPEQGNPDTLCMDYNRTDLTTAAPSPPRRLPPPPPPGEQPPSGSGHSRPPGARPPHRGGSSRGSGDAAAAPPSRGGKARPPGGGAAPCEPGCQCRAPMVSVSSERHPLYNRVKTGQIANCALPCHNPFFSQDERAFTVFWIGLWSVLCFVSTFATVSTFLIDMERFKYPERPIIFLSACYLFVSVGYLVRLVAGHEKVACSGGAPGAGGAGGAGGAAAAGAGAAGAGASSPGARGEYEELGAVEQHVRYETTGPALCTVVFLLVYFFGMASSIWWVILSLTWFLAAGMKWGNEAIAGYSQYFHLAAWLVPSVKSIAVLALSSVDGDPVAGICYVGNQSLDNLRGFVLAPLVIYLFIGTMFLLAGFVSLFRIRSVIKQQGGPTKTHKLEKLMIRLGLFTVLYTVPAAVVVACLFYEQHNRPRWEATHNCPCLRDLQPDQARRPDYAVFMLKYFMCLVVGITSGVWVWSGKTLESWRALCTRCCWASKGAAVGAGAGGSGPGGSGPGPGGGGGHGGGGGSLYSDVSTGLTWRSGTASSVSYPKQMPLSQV
UniProt P27467, residues 19-352: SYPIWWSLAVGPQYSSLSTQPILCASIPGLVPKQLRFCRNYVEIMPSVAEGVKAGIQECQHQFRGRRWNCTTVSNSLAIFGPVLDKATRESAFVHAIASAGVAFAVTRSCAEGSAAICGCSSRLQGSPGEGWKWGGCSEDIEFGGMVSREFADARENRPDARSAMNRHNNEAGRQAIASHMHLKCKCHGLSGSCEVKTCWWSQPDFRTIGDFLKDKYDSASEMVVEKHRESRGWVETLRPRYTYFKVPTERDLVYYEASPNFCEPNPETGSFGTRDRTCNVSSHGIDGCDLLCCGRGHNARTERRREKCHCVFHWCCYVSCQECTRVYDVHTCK
UniProt O00744, residues 29-389: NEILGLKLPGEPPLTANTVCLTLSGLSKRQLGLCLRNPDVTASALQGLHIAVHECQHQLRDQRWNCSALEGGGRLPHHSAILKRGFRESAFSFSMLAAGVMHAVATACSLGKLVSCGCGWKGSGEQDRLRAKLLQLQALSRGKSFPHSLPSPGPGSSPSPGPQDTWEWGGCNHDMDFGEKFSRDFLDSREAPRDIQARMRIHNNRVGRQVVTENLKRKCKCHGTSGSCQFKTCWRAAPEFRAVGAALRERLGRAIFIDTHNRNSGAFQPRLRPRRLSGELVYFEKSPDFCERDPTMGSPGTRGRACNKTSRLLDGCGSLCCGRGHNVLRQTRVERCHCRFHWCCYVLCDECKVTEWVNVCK

In test [2] the target is T1, HiBiT-FZD9-mCherry (mouse) (UniProt Q9R216).
T1 sequence: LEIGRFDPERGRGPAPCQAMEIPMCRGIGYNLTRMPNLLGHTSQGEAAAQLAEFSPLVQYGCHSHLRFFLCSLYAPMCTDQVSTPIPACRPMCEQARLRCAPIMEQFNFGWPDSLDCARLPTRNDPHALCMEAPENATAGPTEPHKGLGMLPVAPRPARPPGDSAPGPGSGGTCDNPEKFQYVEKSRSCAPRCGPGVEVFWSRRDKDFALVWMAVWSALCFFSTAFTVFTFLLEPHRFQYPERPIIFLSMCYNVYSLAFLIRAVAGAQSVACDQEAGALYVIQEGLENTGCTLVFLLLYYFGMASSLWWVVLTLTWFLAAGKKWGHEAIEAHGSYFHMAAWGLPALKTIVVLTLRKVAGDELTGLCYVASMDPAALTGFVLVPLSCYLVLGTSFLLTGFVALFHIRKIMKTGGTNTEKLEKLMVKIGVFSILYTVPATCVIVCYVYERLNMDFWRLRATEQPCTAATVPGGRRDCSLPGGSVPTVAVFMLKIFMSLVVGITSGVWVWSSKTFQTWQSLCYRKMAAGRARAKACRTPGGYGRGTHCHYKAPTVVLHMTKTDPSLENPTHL
Briefly: confocal microscopy of fluorescent ligand on live cells; U-2 OS cells stably expressing HiBiT-FZD1-10-mCherry incubated with eGFP-Wnt3a conditioned medium for 3 h, then imaged.

The target of test [3] is T1, HiBiT-FZD9-mCherry (mouse). Put plainly: FRET or BRET; NanoBiT/BRET association kinetics on live U-2 OS cells stably expressing low levels of HiBiT-FZD-mCherry; LgBiT and Vivazine added; four concentrations of eGFP-Wnt conditioned medium (Wnt3a up to 15.2 nM, Wnt5a up to 17.3 nM, Wnt16 up to 24 nM); 37 °C, DMEM with 5% FBS and 10 mM HEPES, read every 80 s for 300 min; kinetic Kd.

The target in test [4] is HiBiT-FZD5-mCherry (U-2 OS cells) (mouse) (UniProt Q9EQD0). The description is as above.
Test [5] addresses T2, HiBiT-FZD4-mCherry (mouse) (UniProt Q61088).
T2 sequence: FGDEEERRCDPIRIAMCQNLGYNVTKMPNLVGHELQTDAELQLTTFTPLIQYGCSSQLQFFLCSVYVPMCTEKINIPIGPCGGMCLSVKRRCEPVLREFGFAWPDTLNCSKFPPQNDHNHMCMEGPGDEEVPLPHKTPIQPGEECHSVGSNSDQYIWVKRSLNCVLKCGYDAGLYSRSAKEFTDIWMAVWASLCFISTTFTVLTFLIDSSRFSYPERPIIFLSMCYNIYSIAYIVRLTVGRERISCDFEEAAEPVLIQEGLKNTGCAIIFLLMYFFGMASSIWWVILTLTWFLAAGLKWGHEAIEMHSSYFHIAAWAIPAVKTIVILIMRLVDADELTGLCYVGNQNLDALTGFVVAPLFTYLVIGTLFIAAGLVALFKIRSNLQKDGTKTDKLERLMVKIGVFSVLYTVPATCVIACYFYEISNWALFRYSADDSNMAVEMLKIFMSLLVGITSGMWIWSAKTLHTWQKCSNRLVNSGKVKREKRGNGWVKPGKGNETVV
The test is described as above.

Test [6] has as its target HiBiT-FZD8-mCherry (mouse) (UniProt Q61091). Described as above.
Another test concerns the target T3, HiBiT-FZD6-mCherry (UniProt Q61089).
T3 sequence: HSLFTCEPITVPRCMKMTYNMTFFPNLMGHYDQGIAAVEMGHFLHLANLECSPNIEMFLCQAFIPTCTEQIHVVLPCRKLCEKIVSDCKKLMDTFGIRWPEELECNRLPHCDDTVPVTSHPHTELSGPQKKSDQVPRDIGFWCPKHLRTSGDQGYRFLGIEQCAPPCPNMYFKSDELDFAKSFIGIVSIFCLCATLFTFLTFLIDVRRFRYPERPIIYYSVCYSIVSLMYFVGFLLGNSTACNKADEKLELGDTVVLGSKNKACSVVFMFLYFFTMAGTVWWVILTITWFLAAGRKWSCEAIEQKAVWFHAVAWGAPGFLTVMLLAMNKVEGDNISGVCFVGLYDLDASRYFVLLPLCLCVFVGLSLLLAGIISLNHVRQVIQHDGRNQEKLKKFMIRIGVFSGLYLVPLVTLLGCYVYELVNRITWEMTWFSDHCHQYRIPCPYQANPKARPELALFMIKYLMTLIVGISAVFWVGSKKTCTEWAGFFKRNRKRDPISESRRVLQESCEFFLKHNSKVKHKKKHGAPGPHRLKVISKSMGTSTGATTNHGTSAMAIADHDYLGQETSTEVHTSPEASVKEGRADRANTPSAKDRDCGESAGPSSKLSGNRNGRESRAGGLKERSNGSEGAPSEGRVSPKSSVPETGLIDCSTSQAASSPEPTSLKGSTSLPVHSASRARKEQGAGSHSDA
The test is described as above.

In a further test the target is T4, HiBiT-FZD3-mCherry (UniProt Q61086).
T4 sequence: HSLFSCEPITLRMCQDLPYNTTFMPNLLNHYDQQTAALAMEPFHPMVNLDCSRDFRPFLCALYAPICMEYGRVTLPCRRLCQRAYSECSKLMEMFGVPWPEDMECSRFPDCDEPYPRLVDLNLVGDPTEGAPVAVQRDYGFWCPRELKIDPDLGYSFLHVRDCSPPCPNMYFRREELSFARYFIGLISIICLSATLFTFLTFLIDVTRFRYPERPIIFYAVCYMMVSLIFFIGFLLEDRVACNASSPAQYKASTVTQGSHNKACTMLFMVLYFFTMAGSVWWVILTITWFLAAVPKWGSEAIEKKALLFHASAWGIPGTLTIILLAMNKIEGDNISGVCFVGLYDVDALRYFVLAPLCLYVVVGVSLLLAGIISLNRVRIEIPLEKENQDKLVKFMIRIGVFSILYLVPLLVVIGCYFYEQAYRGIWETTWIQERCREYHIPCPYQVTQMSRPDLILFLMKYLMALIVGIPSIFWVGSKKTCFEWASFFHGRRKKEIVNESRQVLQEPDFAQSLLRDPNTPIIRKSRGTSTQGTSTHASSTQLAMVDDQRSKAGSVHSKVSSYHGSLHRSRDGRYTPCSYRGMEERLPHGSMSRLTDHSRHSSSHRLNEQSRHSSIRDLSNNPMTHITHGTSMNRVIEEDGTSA
The test is described as above.

No constants are given. Whether binding was seen depends on the method and setting. For part of these data: Binding seen in cells or lysates may run through a third protein. Some results given as binding are weak or reduced against the parent protein; the word gives no strength.

For the substance “eGFP-Wnt3a (from UniProt P27467 19-352) (ligand)”, the binding entry is given as “binds” in test [1]; “no binding” in test [2]; “no binding (tested: 15.2 nM)” in test [3]; “binds” in test [4]; “binds” in test [5]; “binds” in test [6]. Further, the binding entry in the test with HiBiT-FZD6-mCherry and with HiBiT-FZD3-mCherry was “no binding (tested: 15.2 nM)” in each case.
Turning to “eGFP-Wnt10b (from UniProt O00744 29-389) (ligand)”, in test [1], the binding result was “binds”.

The values above are taken from PMC12153800.
